The list shows a part of the results.

This experiment deals with PfSIP2 AP2 domain 1 (GST-tagged). The experiment is described as follows: gcPBM binding intensity (ln(normalized median fluorescence intensity)); higher = stronger DNA binding. The procedure, abridged:
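DNA-binding domains from P. falciparum, fused to GST and produced in E. coli, were put on an Agilent 4 × 180k double-stranded probe array for 1 h in 1× PBS holding 1% milk, 0.2 mg/ml BSA, 0.5% salmon testes DNA and 0.03% Triton X-100. Probes were primer-extended, 36 bp long and drawn from intergenic genomic regions, with negative controls included. After Alexa488 anti-GST antibody detection and a 488 nm scan, binding intensity was set as the highest Masliner-normalised natural-log median intensity across replicate spots of either probe orientation.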
“ATTTATTTATATAATACACACAAATATCTTAATTAA [CACACA_site3993]”: the “gcPBM binding intensity (ln)” value came out at 6.87.
As to “TGGATATAAAACAACGTGCACTTGGTTGATTTTAAA [GTGCAC_site9900]”, the “gcPBM binding intensity (ln)” value amounted to 9.82.
Next, “TGTGCAAGATTTTTCTGTACATATATATAAATATAT [XGTACX_site1796]”: 8.38; “AAATATTCTTGTTTAATACACACTGTAGTATTATAT [CACACA_site433]”: 7; “GAATAAGATAGATATACACACCATTATAAATATAAA [CACACA_site5392]”: 6.85.
Regarding TTTTGTACTTCATGCGTGCACAGAAATATATTATAT, the “gcPBM binding intensity (ln)” value is 9.49.
For the sequence “GCTAAAAGTATATGCACACACATATATATGCACATA [CACACA_site1635]”, the “gcPBM binding intensity (ln)” value stood at 9.05.
Next, “TAAATACTAATATGTACACACATATAGATATAGATT [CACACA_site7247]”: 6.86.
Regarding “TTAAATAGATAAACTAAACACACAAAAAAAAAAAAA [CACACA_site8308]”, the “gcPBM binding intensity (ln)” value came out at 6.89.
With “ATTTATATTTGTATTTGTACTTATATTTATATTTAT [XGTACX_site1540]”, the “gcPBM binding intensity (ln)” value was found to be 6.98.
In the case of “GCTTTTGTCATGTGCACACACGTATATATTATATAT [CACACA_site6146]”, the “gcPBM binding intensity (ln)” value was found to be 9.87.
For the sequence AAAAAGGTTAAGGTAGTGCATAATAAAGAATATTAA, the “gcPBM binding intensity (ln)” value amounted to 9.2.
For “CTATTATAATATTTTACACACCATGTAAAATATATA [CACACA_site3206]”, the “gcPBM binding intensity (ln)” value came to 7.09.
For the sequence “ATCATTCTTCATTTGTCACACATGATAAAAATATAT [CACACA_site4953]”, the “gcPBM binding intensity (ln)” value was found to be 7.19.
Consider “CTATTTTGGATGTGTACACATATATATATTTATATT [CACACA_site5706]”, for which the “gcPBM binding intensity (ln)” value amounted to 7.52.
Consider “TTTTTTAAGTAATGAAATGATTTTCTTATAGAATAA [GTGCAC_negctrl_site395]”, for which the “gcPBM binding intensity (ln)” value was 6.8.
Consider “CATTAACATTTTATTACACACAATAATTTATAAGTA [CACACA_site4083]”, for which the “gcPBM binding intensity (ln)” value came out at 7.06.
For the sequence “TTTATATATCAATACATTATGTATTAAGTCTTACAT [TGCATGCA_negctrl_site499]”, the “gcPBM binding intensity (ln)” value amounted to 6.86.
Turning to “CAAAAAAAATTATACACACACACACCGATATATATA [CACACA_site4719]”, the “gcPBM binding intensity (ln)” value is 7.48.
With “TTTTAATTAAAAAAATATATAATAAAATTAAATTAT [CACACA_negctrl_site95]”, the “gcPBM binding intensity (ln)” value turned out to be 6.84.
“GGTATATAAAAATATTGTACGAAAATATGCATATAA [XGTACX_site2501]”: the “gcPBM binding intensity (ln)” value came out at 7.17.
Next, “TTTTAAAAAAAACAAAAACATTGTCATATGGAAAAT [CACACA_negctrl_site297]”: 6.85.
Consider “GTATGTTAATTTAATTGTACAAAAAGATACACTGAT [XGTACX_site5710]”, for which the “gcPBM binding intensity (ln)” value amounted to 7.28.
On to “AAATATAAAAAATATACACACATATAAAATCTATAT [CACACA_site7406]”, for which the “gcPBM binding intensity (ln)” value was determined as 6.9.
In the case of “AGGAACAATATATTTGCACACAAAAAATATATATTT [CACACA_site3316]”, the “gcPBM binding intensity (ln)” value came to 7.05.
For the sequence “ATGTTAATCATTAAAAATAAAGTTTAATATAAGAAT [XGTACX_negctrl_site155]”, the “gcPBM binding intensity (ln)” value worked out at 6.96.
In the case of “CAAAACAAGCAAAAATGTACTTGATAAATATTTTCT [XGTACX_site1776]”, the “gcPBM binding intensity (ln)” value was 6.82.
In the case of “AACATACCCATATACACACACACATAAATACAGATA [CACACA_site4744]”, the “gcPBM binding intensity (ln)” value was 7.3.
As to “ATTTAATTCTTTTGTTATAAAATTTTAGTATATATA [CACACA_negctrl_site1649]”, the “gcPBM binding intensity (ln)” value was 7.06.
To “ATAATAAATGATAGCACACATATGTACATATATACA [CACACA_site864]” belongs 7.1.
With “AATACCGGAAAGCAAACACACATTTTAAAACCATAA [CACACA_site3862]”, the “gcPBM binding intensity (ln)” value was determined as 6.97.
Regarding “AAATAAAATAAAAGCACACAAAATGTAAATAATTAT [CACACA_site2775]”, the “gcPBM binding intensity (ln)” value came to 6.98.
On to “GTATGTAATATTTTAGTGCAAAAAAAAAAAAAAAAA [GTGCAC_site9790]”, for which the “gcPBM binding intensity (ln)” value was found to be 8.3.
Take “AAAGAAATAAAAAAAAGTACACAATTATAAATATAT [XGTACX_site3428]”: the “gcPBM binding intensity (ln)” value is 7.06.
For the sequence “CGCGAACATACATACACACACATATTTATATAGGTA [CACACA_site6241]”, the “gcPBM binding intensity (ln)” value was 6.87.
With “AAAATACTTTGAATTTGTACATATAGACATAATATT [XGTACX_site6181]”, the “gcPBM binding intensity (ln)” value amounted to 6.89.
Take “TATATATATATAATTTGTACATATATATGTAACAAT [XGTACX_site8728]”: the “gcPBM binding intensity (ln)” value was determined as 9.
On to “TTCTGCTACCACTTGAATGTCAATGAAATTAAAAAA [CACACA_negctrl_site1164]”, for which the “gcPBM binding intensity (ln)” value was determined as 7.61.
Regarding “ACTATAAATATTTATAAACACACAAATATATATATT [CACACA_site7891]”, the “gcPBM binding intensity (ln)” value stood at 7.39.
Turning to “ATTTATAAAACAGGCACACATATAATAAATTTTATA [CACACA_site2600]”, the “gcPBM binding intensity (ln)” value stood at 6.94.
To “TAATAATTATTGCACGCACACAAAAACCTATAGATT [CACACA_site2931]” belongs 7.36; to “ATACAATACACCGAACGTACATAAATCTATCTTTTA [XGTACX_site3668]”, 7.09; to “ATTTTTTTTTTTACAGTGGAACCATATTTGCTCATT [CACACA_negctrl_site940]”, 6.86.
Consider “TTCACTAATAAATACGCACACATATACATATATATA [CACACA_site1383]”, for which the “gcPBM binding intensity (ln)” value amounted to 7.48.

These data come from the supplement of paper PMC11417369.
